This is an account of results in PMC4336329 (PLoS ONE, 2015).

SMILES strings stand for the structures. The whole screen tested about 310,000 compounds, of which about 2,200 (0.71%) showed an effect of 50% or more. The effect is printed as a negative number. The list shows a part of the results.

In the assay the target is human ether-à-go-go-related gene (hERG) potassium channel (human, UniProt Q12809). The assay is described as follows: primary screen, population patch clamp on CHO cells stably expressing hERG.
human ether-à-go-go-related gene (hERG) potassium channel, sequence (Q12809 whole entry, looked up): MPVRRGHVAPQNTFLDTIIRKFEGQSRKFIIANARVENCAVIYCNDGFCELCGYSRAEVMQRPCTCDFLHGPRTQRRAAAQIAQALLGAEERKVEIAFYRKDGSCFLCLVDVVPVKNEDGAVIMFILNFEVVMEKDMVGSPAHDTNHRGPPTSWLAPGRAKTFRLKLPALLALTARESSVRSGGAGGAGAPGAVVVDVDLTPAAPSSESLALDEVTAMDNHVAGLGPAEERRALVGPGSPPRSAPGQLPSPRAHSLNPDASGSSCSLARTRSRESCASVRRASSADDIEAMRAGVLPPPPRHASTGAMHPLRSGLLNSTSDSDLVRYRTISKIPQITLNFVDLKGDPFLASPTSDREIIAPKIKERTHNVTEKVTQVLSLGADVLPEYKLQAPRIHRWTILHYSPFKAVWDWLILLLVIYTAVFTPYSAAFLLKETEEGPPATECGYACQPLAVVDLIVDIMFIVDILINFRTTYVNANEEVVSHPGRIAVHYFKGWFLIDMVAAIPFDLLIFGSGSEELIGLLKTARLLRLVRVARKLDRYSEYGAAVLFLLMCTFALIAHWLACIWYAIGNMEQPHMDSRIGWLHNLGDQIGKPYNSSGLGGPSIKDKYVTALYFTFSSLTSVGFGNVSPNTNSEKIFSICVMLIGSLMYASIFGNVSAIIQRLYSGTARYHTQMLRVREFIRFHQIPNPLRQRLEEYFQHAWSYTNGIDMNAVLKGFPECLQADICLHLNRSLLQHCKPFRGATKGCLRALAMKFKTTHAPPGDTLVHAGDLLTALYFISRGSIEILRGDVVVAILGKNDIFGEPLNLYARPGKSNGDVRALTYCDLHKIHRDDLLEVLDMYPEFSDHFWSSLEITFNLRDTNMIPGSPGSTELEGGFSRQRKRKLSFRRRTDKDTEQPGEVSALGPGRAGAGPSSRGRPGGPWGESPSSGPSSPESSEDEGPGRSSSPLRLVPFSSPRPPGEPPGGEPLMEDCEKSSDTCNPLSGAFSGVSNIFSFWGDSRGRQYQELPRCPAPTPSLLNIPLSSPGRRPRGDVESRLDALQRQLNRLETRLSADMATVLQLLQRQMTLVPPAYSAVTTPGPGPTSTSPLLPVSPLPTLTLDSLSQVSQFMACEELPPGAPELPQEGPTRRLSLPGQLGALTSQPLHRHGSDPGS
`O=C(C1CC(=O)N(C2CCCC2)C1)N1CCN(c2cccc(Cl)c2)CC1` (centres unmarked): the “hERG current change (%, negative = inhibition) at 1uM” value amounted to 8.02%.

For the compound `CC(NC(=O)C(=O)N1CCCCC1)C(c1cccs1)N1CCN(c2ccc(F)cc2)CC1` (centres unmarked), the “hERG current change (%, negative = inhibition) at 1uM” value amounted to 14.7%. On to `O=C(NCC(O)c1ccc2ccccc2c1)c1c(F)cccc1F` (centres unmarked), for which the “hERG current change (%, negative = inhibition) at 1uM” value is reported as 15.5%.

With `Cc1ccc(SCCN)cc1C.Cl`, the “hERG current change (%, negative = inhibition) at 1uM” value worked out at 20.3%.

In the case of `CN(Cc1ccccc1)S(=O)(=O)c1ccccc1[N+](=O)[O-]`, the “hERG current change (%, negative = inhibition) at 1uM” value was 11.3%. To `Cn1nccc1NC(=O)Nc1cccc([N+](=O)[O-])c1` belongs 8.43%; to `COc1cc(-c2cc(-c3nnco3)c3ccccc3n2)cc(OC)c1OC`, 10.1%; to `CCOC(=O)CNC(=S)N(CCCN1CCCC1)Cc1cccs1`, -9.92%. To `CCn1c(=O)cc(OCC(=O)NC2CC2)c2ccccc21` belongs 9.55%. Consider `CCOC(=O)C1CCN(C(=O)CN(c2cccc(C(F)(F)F)c2)S(C)(=O)=O)CC1`, for which the “hERG current change (%, negative = inhibition) at 1uM” value worked out at 3.22%.

As to `CCN(CC)C(=O)N1CCN(C)CC1.O=C(O)CC(O)(CC(=O)O)C(=O)O`, the “hERG current change (%, negative = inhibition) at 1uM” value was determined as 19.3%. To `CCN(CC)S(=O)(=O)c1ccc2c(c1)nc(SC(C)C(N)=O)n2-c1ccc(OC)cc1` (centres unmarked) belongs -6.79%. With `COc1cccc2c1OC1(C)CC2/C(=C(\C)O)C(=O)N1` (centres unmarked), the “hERG current change (%, negative = inhibition) at 1uM” value came out at 13%. For `COc1ccc(OCC(=O)NCCCNC(=O)COc2ccc(OC)cc2)cc1` the value was 4.68%; for `O=C(c1noc2c1CCc1ccccc1-2)N1CCCc2ccccc21`, 0.415%; for `CCOC(=O)/C(=N\Nc1cc(Cl)ccc1Cl)N1CC(C)OC(C)C1` (centres unmarked), 16%. To `Cc1ccc(C(=O)N2CCCC(Nc3cccc(F)c3)C2)cc1N1CCNC1=O` (centres unmarked) belongs 12.7%; to `COc1ccc(CCC(=O)NC2CCCc3ccccc32)cc1OC` (centres unmarked), 19.4%; to `CCOC(=O)CCCCC(=O)c1[nH]c(=O)[nH]c1CSc1nnc2c3ccccc3n(C(C)C)c2n1`, -0.434%. To `Cc1c(Cl)cccc1-c1ccc(C(=O)N2CCN(c3ccc([N+](=O)[O-])cc3)CC2)o1` belongs -1.98%; to `CCOc1ccc(NS(=O)(=O)c2ccc(C(=O)NCc3ccncc3)cc2)cc1`, 13.7%; to `COCCn1cnc2c1c(=O)n(CC(=O)Nc1cc(C)on1)c(=O)n2Cc1ccccc1`, -13.9%. Turning to `COc1cc(NC(=O)CCCOc2ccc(Cl)cc2Cl)c(C(=O)O)cc1OC`, the “hERG current change (%, negative = inhibition) at 1uM” value is 6.69%. To `CC(C)[C@H](NS(=O)(=O)c1ccc2c(c1)OCCO2)C(=O)OCC(=O)Nc1cc(Cl)ccc1Cl` belongs 12.7%; to `c1cc(CNC2=NCCCCC2)ccn1`, 12%. For `NS(=O)(=O)c1ccc(CCNC(=O)CNC(=O)Cc2ccccc2)cc1`, the “hERG current change (%, negative = inhibition) at 1uM” value was determined as 12.6%.

As to `CCCc1nc(SCc2ccccn2)c2c(=O)n(C)c(=O)n(C)c2n1`, the “hERG current change (%, negative = inhibition) at 1uM” value is recorded as -14%. For `CCC(C)NC(=O)CN(c1ccc(Cl)c(Cl)c1)S(C)(=O)=O` (centres unmarked) the value was 9.83%; for `Cc1ccc2nc(NC(=O)CSc3nc(=O)n(CCCN(C)C)c4c3CCC4)sc2c1`, -5.44%. For `CCCCN(C(=O)c1cccc(C)c1)c1c(N)n(CCC)c(=O)[nH]c1=O` the value was 18.3%; for `N/C(=N\OC(=O)CCCOc1ccccc1)c1ccccc1`, 6.08%. For `O=C(Nc1ccccc1)N1CCN(C2c3ccccc3-c3ccccc32)CC1` the value was 9.82%. Take `O=C(Nc1c2c(nn1-c1ccc(Cl)cc1)CS(=O)(=O)C2)c1ccccc1`: the “hERG current change (%, negative = inhibition) at 1uM” value was 6.79%.

Take `COc1ccccc1N1CN(CCc2ccccc2)CNC1=S`: the “hERG current change (%, negative = inhibition) at 1uM” value is given as 13.4%. `COc1ccccc1/C=N/NC(=O)c1nnn(-c2nonc2N)c1-c1cccs1`: the “hERG current change (%, negative = inhibition) at 1uM” value was determined as 13.8%. For `Cc1ccc(-c2[nH][nH]c(=O)c(=O)c2N=Nc2ccccc2)cc1` the value was 9.66%. To `CC(C)c1ccc(NC2CCCN(C(=O)CN3CCCC3=O)C2)cc1` (centres unmarked) belongs 13.1%; to `CN1C2C(Br)CCCCN2c2ccc(F)cc2S1(=O)=O` (centres unmarked), -0.635%. To `CC(=O)N1N=C(c2cccc(Cl)c2)OC1c1ccc(C(C)C)cc1` (centres unmarked) belongs 2.61%. For `Cc1cccc(C(=O)Nc2ccccc2SCC(=O)Nc2ccc(C)c(Cl)c2)c1`, the “hERG current change (%, negative = inhibition) at 1uM” value was 20%. For `NC(=O)N/N=C/c1cn(CC(=O)Nc2ccc(F)cc2)c2ccccc12` the value was -1.64%.

Consider `COc1ccccc1OCCNC(=O)CN1C(=O)NC2(CCCCC2)C1=O`, for which the “hERG current change (%, negative = inhibition) at 1uM” value came to 0.958%.

Take `Cc1c(N=CN2CCOCC2)c(=O)n(C)c(=O)n1C`: the “hERG current change (%, negative = inhibition) at 1uM” value was 6.82%. To `O=C(c1cc2c(s1)-c1ccccc1S(=O)(=O)C2)N1CCN(Cc2ccccc2)CC1` belongs -3.27%; to `Cc1ccc(NC(=O)CCC(=O)NNC(=O)C(C)(C)C)c(C)c1`, -1.86%. As for `CCNS(=O)(=O)c1ccc(CCC(=O)N2CCN(c3ccccc3F)CC2)cc1`, the “hERG current change (%, negative = inhibition) at 1uM” value came to 10.2%.

Take `CCc1ccc(NC(=O)CSc2nnc(CNC(=O)c3c(F)cccc3Cl)o2)cc1`: the “hERG current change (%, negative = inhibition) at 1uM” value came to 10.7%. To `COc1ccc(CNC(=O)CCc2nc3cc(S(=O)(=O)N(C)C)ccc3n2C)cc1OC` belongs 8.18%; to `CCCCNC(=O)CN1CCC2(O)CCCCC2C1c1ccccc1OC` (centres unmarked), 1.55%. To `O=C1N=C(N2CCCCC2)S/C1=C\c1ccc(Br)cc1` belongs 12.3%; to `COc1cc2c(cc1OC)C(C)N(Cc1ccc3c(c1)OCO3)CC2` (centres unmarked), 9.84%; to `O=C(O)CCC(=O)Nc1cccc(-c2nc3ccccc3o2)c1`, 12.9%. With `COc1ccc2nc(C(C)O)[nH]c2c1` (centres unmarked), the “hERG current change (%, negative = inhibition) at 1uM” value came out at 7.65%. Regarding `COc1ccc(Br)cc1CNC(=O)Cn1nc(C)n2cccc2c1=O`, the “hERG current change (%, negative = inhibition) at 1uM” value turned out to be 5.14%. For `O=C(Cn1nnc(-c2ccccc2)n1)Nc1ccc2c(c1)OCO2` the value was 7.38%; for `CCCC(=O)N1CCC(Cc2ccccc2)CC1`, 12.1%; for `CCCCn1cnc2c1c(=O)n(CC(=O)c1cc(C)n(C)c1C)c(=O)n2CC(C)C`, 2.6%. As for `CCCn1c(-c2ccc[nH]c2=O)nc2cc(C)c(C)cc21`, the “hERG current change (%, negative = inhibition) at 1uM” value worked out at 9.29%. As to `Cc1nc(C)c(C(=O)OC(C)C(=O)Nc2ccc(F)cc2)s1` (centres unmarked), the “hERG current change (%, negative = inhibition) at 1uM” value stood at 5.89%. For `COc1cccc(NC(=O)COC(=O)/C=C/c2c(C)nn(-c3ccccc3)c2C)c1` the value was -7.1%; for `CCn1c(SCC(=O)Nc2ccc(OC)c(OC)c2)nc2c(c1=O)SCC2`, 9.56%; for `O=c1cc(C(F)(F)F)c2cc3c4c(c2o1)CCCN4CCC3`, 0.791%. For `O=C(Nc1ccccc1)C(=O)c1c[nH]c2ccccc12` the value was 7.16%; for `COCCNC(=O)COc1coc(CN2CCN(Cc3ccccc3)CC2)cc1=O`, 13.9%. To `Cc1cccc2nc3ccccc3nc12` belongs 14.2%; to `Cc1nnc(Nc2ccc(Cl)cc2)n(N)c1=O`, 11%.

For `O=C(O)c1ccccc1C(=O)Nc1ccc(S(=O)(=O)NC2CCCCC2)cc1`, the “hERG current change (%, negative = inhibition) at 1uM” value amounted to 8.33%.

As to `COc1ccc(N(CC(=O)NC2CCCCC2)C(=O)CNC(=O)c2ccco2)cc1OC`, the “hERG current change (%, negative = inhibition) at 1uM” value was -3.24%. To `Cc1ccc(Nc2nnc(SCc3ccccc3)s2)cc1` belongs 10.6%; to `O=C(CN1CCN(c2ncc(C(F)(F)F)cc2Cl)CC1)N1CCN(c2ncc(C(F)(F)F)cc2Cl)CC1`, 10.3%; to `COc1ccc(N2C(=O)C3C4C=CC(C4)C3C2=O)c([N+](=O)[O-])c1` (centres unmarked), -2.71%.

Consider `CC1CCN(C(=O)c2nc[nH]c2C(=O)O[C@H](C)c2ccccc2)CC1`, for which the “hERG current change (%, negative = inhibition) at 1uM” value came to 15.2%. For `CC(C)CC(c1nnnn1C1CCCC1)N1CCN(c2ccccc2F)CC1.Cl` (centres unmarked) the value was 4.47%. `Cc1nc2ccc(NC(=O)Cc3c(F)cccc3Cl)cc2s1`: the “hERG current change (%, negative = inhibition) at 1uM” value is recorded as 7.62%. To `O=C(Nc1ccccc1)OC1CN=C(N[N+](=O)[O-])NC1` (centres unmarked) belongs -5.37%; to `Oc1ccccc1C=Nc1ccccc1-c1nc2ccccc2[nH]1`, 1.95%; to `COc1cccc(C(=O)Nc2cccc(-c3nnc(-c4ccccc4)o3)c2)c1`, 0.307%. For `CCCCCCCC(=O)NC(Oc1ccccc1[N+](=O)[O-])C(Cl)(Cl)Cl` (centres unmarked) the value was 10.9%; for `O=C(NC1(C(F)(F)F)C(=O)Nc2c1c(=O)[nH]c(=O)n2Cc1ccccc1)c1ccc(Cl)cc1` (centres unmarked), 7.34%. For `COC(=O)c1c(CCl)noc1C(=O)NC(C)C` the value was 11.3%; for `CC(C)CC(=O)N1CCN(Cc2cccc(F)c2)CC1`, 4.4%. For `O=C(Cn1ncc2c3ccccc3n(Cc3ccccc3)c2c1=O)NCCCN1CCCC1=O`, the “hERG current change (%, negative = inhibition) at 1uM” value is -7.41%.

With `O=C(CCN1C(=O)C2C3C=CC(C3)C2C1=O)N1CCN(c2ccc([N+](=O)[O-])cc2)CC1` (centres unmarked), the “hERG current change (%, negative = inhibition) at 1uM” value was -49.5%. In the case of `COc1ccc(-c2csc(-n3ncc(C(=O)O)c3C(F)(F)F)n2)cc1`, the “hERG current change (%, negative = inhibition) at 1uM” value came out at 14.9%. To `Cc1cccc(OCCC(=O)Nc2ccc(F)c(Cl)c2)c1` belongs 14.3%. To `CC(C)(C)OC(=O)N1CCC(Cc2cc(-c3ccccc3)no2)(C(=O)O)CC1` belongs 8%; to `CCc1cc2cc3c(cc2nc1SCC(=O)Nc1nccs1)OCO3`, 1.41%; to `O=C1OC(Cc2ccncc2)C(O)=C1C1=NCCCN1` (centres unmarked), 11.6%.

For `CN(c1ccccc1)S(=O)(=O)c1ccc(C(=O)NCC2CCCO2)cc1` (centres unmarked), the “hERG current change (%, negative = inhibition) at 1uM” value worked out at 4.38%.
